The list shows a part of the results.
Tested on: PF3D7_0420300 AP2 domain 1 (GST-tagged)
Experiment: gcPBM binding intensity (ln(normalized median fluorescence intensity)); higher = stronger DNA binding
Summary of the method: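 In this array assay, P. falciparum DNA-binding domains with a GST tag, expressed in E. coli, were applied for 1 h to primer-extended double-stranded 36-bp intergenic genomic probes and negative controls on an Agilent 4 × 180k array. Bound protein was visualised with Alexa488 anti-GST antibody at 488 nm. Binding intensity is the highest Masliner-normalised natural-log median intensity across replicate spots of either probe orientation.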

Sequence | gcPBM binding intensity (ln)
TACGTTCTAATATATACACACCTGGTATTAATTATG [CACACA_site5260] | 9.63
AAATATTATTTATTTACACACCAATCTTCTTTTCTT [CACACA_site3990] | 9.57
GAAAAATTTTTATATGTGCACATGTTATATATAATT [GTGCAC_site9742] | 9.28
CGTATATATATATACACACACATATATATATGTAAA [CACACA_site195] | 9.69
TATTTCCATTCATAATTTTGTAGAATATATAACCGT [CACACA_negctrl_site1531] | 9.11
AAAAACTTAATATTCACACATATATATATATATATA [CACACA_site5240] | 9.14
AAAAAAAAAAATTACACACATACATATAATAATAAT [CACACA_site2193] | 9.85
AAAAAAAAAAATCCAGTGCATATATTTTTTACATAT | 9.18
ATTACATTAATAAGAGTGCATTATATAAGTTTTATG | 9.2
TCAATCATCTTATATAGTACACATAAAAGTATTATA [XGTACX_site8513] | 8.99
GACAAAATGATAGGGACACACAATATCAATGTTTAA [CACACA_site765] | 9.46
CCACTAATAAATATTACACACATATAGATTTATATT [CACACA_site7465] | 9.51
CAAAAGGATATGCACACACACACACGGATATTTATA [CACACA_site7099] | 10.2
TTTTGTTATTAGAGGGTGCTTATAATGAACTCCTAC | 9.05
TTTTGTTTTAATTTTATTTGATTTTATTTGATTTAT [CACACA_negctrl_site692] | 9.43
ATATTTATATGGTTTGCACACATAACAACTATGGTT [CACACA_site3631] | 9.57
ATATAACATATCAATTGTACGTATTGATAATATATA [XGTACX_site2504] | 9.19
AGGCACACAAACATATGTACACATATATATATATAT [XGTACX_site4723] | 9.42
TTTATTGAACGTACACATATATATATGTATATATTT [TGCATGCA_negctrl_site141] | 9.42

Sequence | gcPBM binding intensity (ln)
TTATTTTTTTTATATATATGTATAAATATATATATA [XGTACX_negctrl_site441] | 9.18
AAAATTTTTAAATATTGTACTATTTATTTTTAGCAT [XGTACX_site6190] | 9.12
TATATATATATATTTACACACATTCATATAAATTCA [CACACA_site3532] | 9.32
AATATGAACGGACACACACACACAAAAAAAAAAAAA [CACACA_site5154] | 10.1
GCCTACAGACTTAGTAGTACATGAGAAGATATATAT [XGTACX_site2269] | 9.06
TATATTTATTTATATACACACACTTGTATAAAAAAT [CACACA_site2036] | 9.4
TATATACAGAAACACACACACACATATATATATATA [CACACA_site2247] | 10.1
TATATCAAAATACATACACACATTTGTATATACATT [CACACA_site2696] | 9.64
TTAAATATTTTTAGAGTGCATGTAATAAAAATATAA [GTGCAC_site9414] | 9.08
TATCTATATGGGAACACACTCATAAATATATATCTA [CACACA_site4815] | 9.3
AAAATAAATAAATACACACACACGAATATATATATA [CACACA_site1683] | 10.2
TTTTAAAAATAATAAATAAATAAAATTGAAGTTCCA [CACACA_negctrl_site305] | 8.83
TTTTTTTTGTTGTTGTTGCACTTGATAGGAATGGCT [GTGCAC_site9701] | 9.18
AAAAAAAACAGACACACACACAAATACATACACAAA [CACACA_site705] | 10
CCATTTACAAAAAGGAGTACACAAATATATGTTTAA [XGTACX_site649] | 9.12
TACTTACAGATAATAACACACAAGAAAAAAATAAAA [CACACA_site4716] | 9.8
ATATAAATGTATATGACACACATATATATATATATA [CACACA_site889] | 9.22
TACAAATATGGACACACACACATATTTATATTTATA [CACACA_site6420] | 10
AAAAAACAGACATACACACACACACGGATATTTATA [CACACA_site7570] | 10.3

Sequence | gcPBM binding intensity (ln)
AATATTTATGGGTGCACACAAACATACAGATATATA [CACACA_site5810] | 9.6
TATATATATATCAAGTGTACTTGTGTTTGTAATATT [XGTACX_site8854] | 9.41
TATTATTTTTCCTAATGTACAAAATATATATTTTTA [XGTACX_site2727] | 9
TTTGAATATATAAATATGCACACTTCTATTATAAAT [CACACA_site3359] | 9.18
TTCTTATATAAATACACACACAAAATATCTACAATG [CACACA_site4568] | 9.9
AATCGATTGGATAATATTTTTTCTCTTAATTTTTTG [GTGCAC_negctrl_site165] | 9.08
AAAAAAATAAAAAGGAACGTCTATAGTTAATTTATT [CACACA_negctrl_site919] | 9.38
ATGTTGCACAATGTTACACACACAATATATATCGTT [CACACA_site4833] | 10
TATATTAGAAGAAATTCACACATTCATGTAATCTTA [CACACA_site4706] | 9
TAACATATTATATATACATGCATACGTGAACTAATC [TGCATGCA_site888] | 9.32
GATATATTATTTGAATGTACATATTATATTTATATT [XGTACX_site907] | 9.26
ATTGTATATGTATATGCACACAATATATGTACTTAT [CACACA_site2611] | 9.51
TTTTTTTAGTTAATTAAACACACAAAAAAAAAAATA [CACACA_site9301] | 9.05
GTTAGAATTGTTAGGTGGTCAAAAAGGAGAAAAAAA [XGTACX_site2086] | 9.17
AAAAGAAAATTAAATTAACACACATAAATATATATA [CACACA_site8482] | 9.52
TTCACATACAGAAACACACACATATTTATAAATTAA [CACACA_site7699] | 9.69
TTTTTAATTAACTTTTTATAAATAAATAAAAATATA [GTGCAC_negctrl_site334] | 8.55
ATTATTTAATTTTATTAAAAAAAAACAAATTAACAG [GTGCAC_negctrl_site152] | 8.93
TTAAAATAGATATTAGTGCAAAAAAAAAAAAATAAA | 9.26

Source: the supplement of paper PMC11417369
